Here are results for 25 compounds from paper PMC4336329 (PLoS ONE, 2015).

Among all 310,000 compounds or so, about 14,000 (4.5%) showed an effect of 50% or more. Effects have a minus sign here. Some of the results follow.
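Also: peak tail current of the secondary pulse compared with the same well before compound.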

Sequence of human ether-à-go-go-related gene (hERG) potassium channel (Q12809 whole entry, looked up): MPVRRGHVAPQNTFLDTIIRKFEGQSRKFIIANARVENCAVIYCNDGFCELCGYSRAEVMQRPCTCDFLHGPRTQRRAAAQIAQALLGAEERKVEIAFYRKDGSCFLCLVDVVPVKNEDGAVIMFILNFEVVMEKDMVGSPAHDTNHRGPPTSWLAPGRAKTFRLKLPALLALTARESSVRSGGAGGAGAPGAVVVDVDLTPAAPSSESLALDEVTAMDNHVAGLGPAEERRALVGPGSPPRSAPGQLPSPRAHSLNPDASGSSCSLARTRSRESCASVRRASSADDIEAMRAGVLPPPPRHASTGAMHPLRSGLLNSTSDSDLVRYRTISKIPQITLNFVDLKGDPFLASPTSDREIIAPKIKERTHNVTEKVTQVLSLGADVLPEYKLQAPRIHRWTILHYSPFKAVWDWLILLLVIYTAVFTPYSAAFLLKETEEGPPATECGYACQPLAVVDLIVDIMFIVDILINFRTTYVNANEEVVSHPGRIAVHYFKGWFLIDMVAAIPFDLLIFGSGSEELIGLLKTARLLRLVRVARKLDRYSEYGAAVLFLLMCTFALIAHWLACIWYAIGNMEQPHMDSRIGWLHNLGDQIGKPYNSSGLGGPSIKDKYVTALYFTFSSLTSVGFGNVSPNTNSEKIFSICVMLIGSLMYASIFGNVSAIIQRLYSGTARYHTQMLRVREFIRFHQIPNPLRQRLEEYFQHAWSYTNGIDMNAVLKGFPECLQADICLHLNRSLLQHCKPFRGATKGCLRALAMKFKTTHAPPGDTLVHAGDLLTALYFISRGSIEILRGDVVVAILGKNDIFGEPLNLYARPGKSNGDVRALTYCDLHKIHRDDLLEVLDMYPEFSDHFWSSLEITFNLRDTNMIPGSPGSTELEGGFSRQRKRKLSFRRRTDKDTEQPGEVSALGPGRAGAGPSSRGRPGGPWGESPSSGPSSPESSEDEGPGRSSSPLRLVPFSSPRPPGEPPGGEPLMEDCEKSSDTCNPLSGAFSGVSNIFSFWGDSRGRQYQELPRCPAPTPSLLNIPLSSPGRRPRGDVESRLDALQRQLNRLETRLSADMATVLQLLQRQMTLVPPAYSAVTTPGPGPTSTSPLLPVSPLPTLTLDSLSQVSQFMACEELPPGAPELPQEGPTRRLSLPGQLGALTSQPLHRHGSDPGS

This assay addresses human ether-à-go-go-related gene (hERG) potassium channel (human, UniProt Q12809). Description: primary screen, population patch clamp on CHO cells stably expressing hERG.
As to `COc1ccccc1NC(=O)Nc1ccc(Cc2ccncc2)cc1`, the “hERG current change (%, negative = inhibition) at 10uM” value is -0.881%. On to `CC(=O)c1ccc(OCC(O)CNCc2ccc3c(c2)OCO3)cc1` (stereo not shown), for which the “hERG current change (%, negative = inhibition) at 10uM” value is recorded as -26.1%. Then `O=c1c2ccccc2nc(-c2ccccc2)n1-c1ccc(O)cc1`, with -19.8%; and `Cc1ccc(CNC(=O)CCS(=O)(=O)c2cc3c(cc2Cl)NC(=O)CO3)cc1`, with -8.89%.

As for `COc1cccc(C(=O)NCC2CCCN2S(=O)(=O)c2cccs2)c1` (stereo not shown), the “hERG current change (%, negative = inhibition) at 10uM” value is given as -9.69%. The value for `CC(=O)c1c(C)oc2ccc(NS(=O)(=O)c3ccccc3)cc12` was 3.05%. With `CCNC(=S)NNC(=O)c1csc2ccccc12`, the “hERG current change (%, negative = inhibition) at 10uM” value is recorded as 3.85%.

As for `CSC1=N/C(=C\c2cccnc2)C(=O)N1c1ccccc1`, the “hERG current change (%, negative = inhibition) at 10uM” value is on record as -1.31%.

Consider `CCCc1nc2ccccc2c(C(=O)OCC(=O)N2CCc3ccccc32)c1CC`, for which the “hERG current change (%, negative = inhibition) at 10uM” value was determined as 9.89%. The value for `COc1cc2ccccc2cc1C(=O)Nc1ccccc1N1CCCC1` was -4.16%; that for `CN(C)c1cc(-c2ccccc2)nc(N)n1` was -0.585%. Consider `CCOC(=O)C1CCN(C(=O)c2ccc(OC)cc2OC)CC1`, for which the “hERG current change (%, negative = inhibition) at 10uM” value was -25.5%. The value for `CCN(CC)CCn1c(NC(=O)c2ccc(C)cc2)nc2ccccc21` was -63.2%. Then `COc1ccc(N2CCN(CC(=O)Nc3ncc(C)s3)CC2)cc1`, with 9.71%. Regarding `Cn1ncc2c(Nc3cccc4ccccc34)ncnc21`, the “hERG current change (%, negative = inhibition) at 10uM” value is -6.03%.

Take `CC/C(=N\NC(=O)c1nnn(-c2nonc2N)c1-c1cccs1)c1ccccc1`: the “hERG current change (%, negative = inhibition) at 10uM” value came out at 24.3%. As to `O=C1C=C(c2ccc(Oc3ccccc3)cc2)C[C@@H](c2ccc(Cl)cc2)C1`, the “hERG current change (%, negative = inhibition) at 10uM” value was 6.02%. Then `Cc1cccc(OCCSc2nnc(-c3ccoc3C)n2C)c1`, with -30.4%; and `COCCn1c(CNc2ccc(F)cc2)nnc1SCC(=O)Nc1ccc(OC)cc1OC`, with -32.9%; and `Cc1ccc2nc(SCC(=O)Nc3cccc(S(=O)(=O)NC4=NCCCCC4)c3)[nH]c2c1`, with -10.7%. As for `Cc1ccc(SC(C)C(=O)Nc2cccc(N(C)S(C)(=O)=O)c2)cc1` (stereo not shown), the “hERG current change (%, negative = inhibition) at 10uM” value is on record as -4.89%. Take `Cc1cc(C)c(S(=O)(=O)N2CCCC(C(=O)NC3CCCC3)C2)c(C)c1` (stereo not shown): the “hERG current change (%, negative = inhibition) at 10uM” value was -16.1%.

As for `COc1ccc(C2(CNC(=O)c3cccc([N+](=O)[O-])c3)CCOCC2)cc1`, the “hERG current change (%, negative = inhibition) at 10uM” value came to 0.0345%. On to `CCCOCC(O)CC(Cc1ccccc1)C(=O)NN` (stereo not shown), for which the “hERG current change (%, negative = inhibition) at 10uM” value was 11.5%. Then `O=C(Oc1ccccc1)c1cccnc1Oc1ccccc1`, with -9.7%.
